# From ChEMBL document CHEMBL1201862, “PubChem BioAssay data set” (2004)
#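 All cell lines were grown in 96-well plates and treated with compound for 48 hours. Here, GI50 denotes the concentration required for 50% inhibition of growth.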 Activity calls are given as the source filed them. Cut-off read from the data, not from the text of the source: active = GI50 up to about 1.1 µM and inactive = higher.
# Test system: NCI-H322M
# Assay: inhibition of tumour cell growth, NCI panel, 48 h
row,SMILES,GI50
1,O=C(Nc1cccc2ccccc12)c1ccccc1,inactive: > 100 µM
2,COc1cccc(-c2cc(O)c3cc(OC)ccc3n2)c1,active: 0.641 µM
3,CN(C)Cc1cc(O)c(O)c(CN(C)C)c1,inactive: 26.4 µM
4,NCCOc1ccccn1,inactive: > 100 µM
5,CCc1nc2cc3cccnc3c(Cl)c2[nH]c1=O,inactive: > 100 µM
6,CC(=O)O[C@H]1CC[C@@]2(C)C(=CC[C@@H]3C2CC[C@]2(C)Nc4nc5ccccc5cc4CC32)C1 (stereo partly drawn),inactive: 8.47 µM
7,OCCN1CCN(c2nc(N3CCCC3)c3nc(Cl)c(NCc4ccccc4)nc3n2)CC1,inactive: 10.4 µM
8,O=C1C2C(C(=O)N1c1ccccc1)C1([N+](=O)[O-])C=C3c4ccccc4N(C(=O)c4ccccc4)C32C2C(=O)N(c3ccccc3)C(=O)C21 (stereo not drawn),inactive: > 100 µM
9,CC(=O)OC1COC(n2c(=S)n(-c3ccccc3)c(=O)c3cc(Br)ccc32)C(OC(C)=O)C1OC(C)=O (stereo not drawn),inactive: 60.8 µM
10,CCCCN(CCCC)c1ccc(/N=N/c2ccc(S(=O)(=O)O)cc2)cc1,inactive: 19.3 µM
11,Clc1ccc(Cl)c(SCCCN2CCNCC2)c1,inactive: 17.4 µM
12,[N-]=[N+]=Nc1ccc2c(c1)Sc1ccccc1N2CCCCN1CCN(Cc2ccc(C(=O)c3ccccc3)cc2)CC1,inactive: 4.06 µM
13,CCN(CC)CCCC(C)Nc1cc(-c2ccccc2)nc2cc(OC)ccc12 (stereo not drawn),inactive: 5.56 µM
14,COc1ccc(C2S/C(=C\c3ccc(OC)cc3OC)C(=O)N2NC(=O)Cc2ccccc2)cc1 (stereo not drawn),inactive: > 100 µM
15,COc1cc(NS(C)(=O)=O)ccc1NCc1c[nH]c2ccc3nc(C)ccc3c12,inactive: > 100 µM
16,CSc1ccn(C2CC(F)C(CO)O2)c(=O)n1 (stereo not drawn),inactive: > 100 µM
17,O=C(COc1ccc(OCC(=O)N2C(=O)CC(=O)N(c3ccc(Cl)cc3)C2=S)cc1)N1C(=O)CC(=O)N(c2ccc(Cl)cc2)C1=S,inactive: 24.9 µM
18,O=C(c1ccc(NCN2C(=O)CCC2=O)cc1)c1ccc(NCN2C(=O)CCC2=O)cc1,inactive: > 100 µM
19,Cc1ccc([N+](=O)[O-])cc1S(=O)(=O)Nc1ccc(C2=NN(c3ccc([N+](=O)[O-])cc3[N+](=O)[O-])C(c3cccs3)C2)cc1 (stereo not drawn),inactive: 24.1 µM
20,C[N+]1(C)CCC(C#N)(c2ccccc2)CC1,inactive: > 100 µM
21,COc1ccc(/C=C2\C(=O)N(NC(C)=O)c3ccccc32)cc1,inactive: 41.3 µM
22,CN(C)c1ccc(/C=C(\NC(=O)c2ccccc2)C(=O)Nc2cccc(C(=O)NCCCO)c2)cc1,inactive: > 100 µM
23,Cc1ccc2oc3c(ccc(=O)n3C)c(=O)c2c1,inactive: > 100 µM
24,Cc1ccc(-n2c(O)c(C#N)c3[nH]nc(N)c3c2=O)cc1,inactive: > 100 µM

row,SMILES,GI50
1,COc1cc(S(=O)(=O)Nc2ccc(-c3csc(N4C(=O)C(C)SC4c4ccccc4)n3)cc2)ccc1Cl (stereo not drawn),active: 0.0581 µM
2,C/C(=N\O)c1ccc2cc(Br)c3ccccc3c2c1,inactive: 20.4 µM
3,ClC(Cl)(Cl)C1=N[C@H]2[C@H](Br)[C@@H]3O[C@@H](c4ccccc4)[C@H](c4ccccc4)O[C@@H]3[C@H]2O1,inactive: 19.6 µM
4,CCN1C(=O)C(=C/C=C/C=C2/N(C)c3ccccc3C2(C)C)C(=O)N(CC)C1=S,inactive: > 100 µM
5,CCOC(=O)C(NC(=O)c1ccccc1)(Nc1ccc(S(=O)(=O)Nc2cc(C)nc(C)n2)cc1)C(F)(F)F (stereo not drawn),inactive: > 100 µM
6,CC1(C)C2CCC3(OCCO3)C1C1OC12 (stereo not drawn),inactive: > 100 µM
7,O=C(Nc1ccc(C2=NCCN2)cc1)c1cncc(C(=O)Nc2ccc(C3=NCCN3)cc2)c1,inactive: > 100 µM
8,O=C1N2CCN=C2c2ccccc2C1(O)c1ccccc1 (stereo not drawn),inactive: > 100 µM
9,O=C1N(C2CCCCC2)CC12CCCCC2,inactive: > 100 µM
10,O=C(CC1=NCCN1)c1ccccc1,inactive: > 750 µM
11,CSc1ccc(/C=C2\N=C(c3ccccc3)N(c3nc4cc(Cl)c(F)cc4s3)C2=O)cc1,inactive: > 100 µM
12,O=C(Nc1sccc1S(=O)(=O)c1ccccc1)c1ccccc1,inactive: > 100 µM
13,CC1OC(n2cc(I)c(=O)[nH]c2=O)C=CC1=O (stereo not drawn),inactive: 18.5 µM
14,NC(=O)c1csc(C2CCC(CO)O2)n1 (stereo not drawn),inactive: > 100 µM
15,COc1ccc(N2C(=O)C3c4[nH]c5ccccc5c4C4CCC(c5ccccc5)CC4C3C2=O)cc1 (stereo not drawn),inactive: > 62.7 µM
16,C=C1CC(C)(COc2ccc3c(C)cc(=O)oc3c2)OC1=O (stereo not drawn),inactive: 10.2 µM
17,Cn1c(=O)c2c(nc3sc4c(n32)C(=O)c2c(O)ccc(O)c2C4=O)n(C)c1=O,inactive: 23 µM
18,CSc1cc(Cl)c(C)cc1S(=O)(=O)NC(=O)NNc1ccc(F)c(Cl)c1,inactive: > 100 µM
19,COc1cc(C)c(S(=O)(=O)N(CCCN)OCCCN)c(C)c1C,inactive: > 100 µM
20,CCN(CC)c1ccc(Cl)c2c1C(O)(C(C)C)C2(C)C (stereo not drawn),inactive: 19.5 µM
21,CCOC(=O)c1c(N2CCCC2)ncn(-c2ccccc2)c1=S,inactive: > 100 µM
22,COc1ccc2c(c1)C=C([N+](=O)[O-])C(C1OC(C)(C)OC1C1COC(C)(C)O1)O2 (stereo not drawn),inactive: 14.2 µM
23,CCN(CC)CCSc1nc2c(c(=N)n1-c1ccccc1)c(=S)n(-c1ccccc1)c(=S)n2-c1ccccc1,inactive: 11 µM
24,O=C(O)C1C(C(=O)Nc2ccc3c(c2)Cc2ccccc2-3)C2(Cl)C(Cl)=C(Cl)C1(Cl)C2(Cl)Cl (stereo not drawn),inactive: 33.2 µM

row,SMILES,GI50
1,CCOC(=O)COc1ccc(OCC(=O)OCC)c2c1C(=O)CCCC2=O,inactive: > 100 µM
2,OC(CCN1CCN(CCOC(c2ccc(F)cc2)c2ccc(F)cc2)CC1)c1ccc(Br)cc1 (stereo not drawn),inactive: 11 µM
3,Nc1nc2c3nc(Nc4ccccc4)sc3nc(=S)n2c2sc(Nc3ccccc3)nc12,inactive: 40.7 µM
4,CCOC(=O)NC(=O)c1cn(CCCOC(=O)NCCCCCCNC(=O)OCCCn2cc(C(=O)NC(=O)OCC)c(=O)[nH]c2=O)c(=O)[nH]c1=O,inactive: 62.4 µM
5,C=CCc1cccc2cc(C(=O)Nc3ccccc3)c(=N)oc12,inactive: 15.6 µM
6,CCCCCCCC/C=C1\CCC(CN(C)C)C1=O (stereo not drawn),inactive: 16.9 µM
7,O=C(CN1CCOCC1)c1ccc2c(c1)oc(=O)n2CCN1CCCCC1,inactive: > 100 µM
8,CS(=O)(=O)NNS(=O)(=O)c1cccc([N+](=O)[O-])c1,inactive: > 100 µM
9,CC1(C)[N+]([O-])=[N+]([O-])C1(C)O (stereo not drawn),inactive: > 100 µM
10,CSc1ccc(/C=C2\N=C(c3ccccc3)N(c3nc4cc(C)c(C)cc4s3)C2=O)cc1,inactive: 45.9 µM
11,Cc1cc2nnc(C(N)=O)c(N)c2cc1C,inactive: > 100 µM
12,COC(=O)C1=C(C)NC(C)=C([N+](=O)[O-])C1c1cccc(NO)c1 (stereo not drawn),inactive: 11.2 µM
13,COc1ccc(-c2[nH]c(-c3ccc(OC)cc3)c(-c3ccccn3)c2-c2ccccn2)cc1,inactive: > 100 µM
14,NN/C(Cc1ccccc1)=N\NO,inactive: > 100 µM
15,Cc1ccc(S(=O)(=O)N2CCCCC2CCO)cc1 (stereo not drawn),inactive: > 100 µM
16,COC(=O)C1=C(C(=O)OC)C(N(C)C)C(C(=O)OC)=C(C(=O)OC)S1,inactive: > 100 µM
17,CO[C@@]12C[C@@H](CNC(=O)c3cc(Br)c[nH]3)O[C@@H]1NC(=O)N2,inactive: > 100 µM
18,CC(=O)OCc1cc(=O)n(C)c2c3c4c(cc12)c(C)cc(=O)n4CO3,inactive: 1.18 µM
19,O=C1OC(C2Cc3ccccc3C2=O)c2ccccc21 (stereo not drawn),inactive: > 100 µM
20,COc1cc(/C=C2/C[C@H]3[C@@H]4CC=C5C[C@@H](O)CC[C@]5(C)[C@H]4CC[C@]3(C)NC2=O)cc(OC)c1OC,inactive: 12.8 µM
21,CNn1c(-c2ccccc2)n[nH]c1=O,inactive: > 100 µM
22,Cc1ccc(S(=O)(=O)n2cc(-c3cnc(N)c(Br)n3)c3ccccc32)cc1,inactive: 3.48 µM
23,Cc1ccc(S(=O)(=O)Oc2cc(-c3ccccc3)nc3ccccc23)cc1,inactive: 3.57 µM
24,COC(=O)/C=C\C(C#N)(C#N)/N=C/c1cccs1,inactive: 18.4 µM

row,SMILES,GI50
1,O=C(O)C(Br)C(Br)c1ccccc1[N+](=O)[O-] (stereo not drawn),inactive: > 100 µM
2,CC1OC(n2cc(F)c(=O)[nH]c2=O)C(O[Si](C)(C)C(C)(C)C)C1O[Si](C)(C)C(C)(C)C (stereo not drawn),inactive: > 10 µM
3,CC(C)=CC1CC(=[N+]=[N-])C(=O)C1(C)C (stereo not drawn),inactive: > 100 µM
4,Cc1c(/C=N/NC(=S)Nc2ccccc2)c(=O)n(-c2ccccc2)n1C,inactive: > 100 µM
5,CN1CCc2c(sc3nc(S)nc(S)c23)C1,inactive: > 100 µM
6,CC1=NC(=Cc2ccccc2O)C(=O)N1n1c(-c2ccccc2)nc2ccccc2c1=O,inactive: 46.5 µM
7,Cc1cc2[nH]c3c(C#N)c(-c4ccccc4)c(/C=N/c4ccc(Cl)cc4)c(=O)n3c2cc1C,inactive: > 100 µM
8,O=C(CN1CCCCC1)c1ccc2[nH]c(=O)oc2c1,inactive: > 100 µM
9,COC12COC(=O)C1C(c1ccc3c(c1)OCO3)c1cc3c(cc1O2)OCO3 (stereo not drawn),inactive: 38 µM
10,COc1cc(C(C)O)c[n+](CCC2CNc3ccccc32)c1 (stereo not drawn),inactive: > 100 µM
11,O=P1(NCCCl)OCCC(OO)N1CCCl (stereo not drawn),inactive: 62.1 µM
12,CC(=O)NC(Cc1ccsc1)C(=O)O (stereo not drawn),inactive: > 100 µM
13,Nc1ccc(/N=N/c2ccc(/C=C/c3ccc(/N=N/c4ccc(N)c5ccc(S(=O)(=O)O)cc45)cc3S(=O)(=O)O)c(S(=O)(=O)O)c2)c2cc(S(=O)(=O)O)ccc12,inactive: > 100 µM
14,O=S(=O)(O)c1ccc([Se][Se]c2ccc(S(=O)(=O)O)cc2)cc1,inactive: > 100 µM
15,CCN(CC)COC(=S)S,inactive: > 100 µM
16,COC(OC)[C@@H](C)[C@H](O)[C@](C)(O)C1OC(C)(C)OC(C(C)C=C(C)C)C1C (stereo partly drawn),inactive: > 100 µM
17,Nc1ccc(-c2nc3ccccc3s2)cc1F,inactive: 30.1 µM
18,COC1C(O)C(C)OC(OC2C(Oc3cccc4c(O)c5c(=O)oc6ccc(C)c7c(=O)oc(c34)c5c67)OC(C)C(O)C2O)C1O (stereo not drawn),inactive: 2.37 µM
19,O=C1C(Cl)=C(N2C(=O)CCC2=O)C(=O)c2ccccc21,inactive: > 100 µM
20,O=C(c1cccs1)N1CCCN(C(=O)c2cccs2)C1=S,inactive: > 100 µM
21,Nc1ccc2cc3ccc(N)cc3nc2c1,inactive: 1.39 µM
